Among the data in PubChem BioAssay AID256 (DTP/NCI, 2004) are T/C values, retold here.

For this test, the system named is CD2F1 mice, L1210 leukemia ip, survival T/C. In words: NCI In Vivo Anticancer Drug Screen. Data for tumor model L1210 Leukemia (intraperitoneal) in CD2F1 (CDF1) mice. The conditions noted are these: higher = longer survival. On the procedure:
The antitumor activity of compounds was measured in mice bearing transplantable tumors. Survival or tumor size were measured and the results are expressed as the measurement made in the treated group (T) divided by the measurement made in the vehicle treated control group (C). The tumor model used in this assay is L1210 Leukemia (intraperitoneal) in CD2F1 (CDF1) mice

Inconclusive results and toxic doses are left out. A number of entries come with more than one value. The other results are left out here. There may be further records. The records of an entry do not match, cause unknown; some may be repeats, others may stem from another dose, organism or construct than stated.

As for `Cc1c2ccncc2c(C)c2c1[nH]c1ccccc12`, the T/C (endpoint: mean survival time, dose: 100.0 mg/kg/injection, schedule: Q04DX003 (ip), vehicle: other) was 97 % of control, 160 % of control, 192 % of control.

For `COc1c(O)cc2c(c1OC)-c1ccc(SC)c(=O)cc1C(NC(C)=O)CC2` (configuration not stated), the T/C (endpoint: median survival time, dose: 0.63 mg/kg/injection, schedule: Q01DX009 (ip), vehicle: Klucel (hydroxypropylcellulose) (HPC)) is 120 % of control and 154 % of control.
